# Reference: the supplement of paper PMC8728848
# This is one part of the list.
# B1: AAL (Aleuria aurantia), P18891 (protein)
# chain: PTEFLYTSKIAAISWAATGGRQQRVYFQDLNGKIREAQRGGDNPWTGGSSQNVIGEAKLFSPLAAVTWKSAQGIQIRVYCVNKDNILSEFVYDGSKWITGQLGSVGVKVGSNSKLAALQWGGSESAPPNIRVYYQKSNGSGSSIHEYVWSGKWTAGASFGSTVPGTGIGATAIGPGRLRIYYQATDNKIREHCWDSNSWYVGGFSASASAGVSIAAISWGSTPNIRVYWQKGREELYEAAYGGSWNTPGQIKDASRPTPSLPDTFIAANSSGNIDISVFFQASGVSLQQWQWISGKGWSIGAVVPTGTPAGW
# Key:
# Assay in all cases: glycan array binding signal (z-score within array); higher = stronger binding
# Conditions in all cases: glycan notation: IUPAC condensed, linker removed
# [1] = biological target: Fuc(a1-2)Gal(b1-4)[Fuc(a1-3)]GalNAc(b1-3)Gal(b1-4)[Fuc(a1-3)]GlcNAc(b1-3)Gal(b1-4)[Fuc(a1-3)]GalNAc
# Method in brief: (§1)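 Glycan array data came from 3228 arrays in the Consortium for Functional Glycomics database, and only arrays with an available protein sequence were kept. Glycan names were put into IUPAC-condensed notation, and columns mapping to the same glycan were averaged. The binding signal is a within-array Z-score, averaged across arrays of one protein sequence run at different concentrations or buffers and across linkers. A negative Z-score can be read as non-binding.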
# [2] = biological target: Fuc(a1-2)Gal(b1-4)[Fuc(a1-3)]GlcNAc
# Method in brief: as §1
# [3] = biological target: Fuc(a1-2)Gal(b1-4)[Fuc(a1-3)]GlcNAc(b1-2)Man(a1-3)[Fuc(a1-2)Gal(b1-4)[Fuc(a1-3)]GlcNAc(b1-2)Man(a1-6)]Man(b1-4)GlcNAc(b1-4)GlcNAc
# Method in brief: as §1
# [4] = biological target: Fuc(a1-2)Gal(b1-4)[Fuc(a1-3)]GlcNAc(b1-2)[Fuc(a1-2)Gal(b1-4)[Fuc(a1-3)]GlcNAc(b1-4)]Man(a1-3)[Fuc(a1-2)Gal(b1-4)[Fuc(a1-3)]GlcNAc(b1-2)Man(a1-6)]Man(b1-4)GlcNAc(b1-4)GlcNAc
# Method in brief: as §1
# [5] = biological target: Fuc(a1-2)Gal(b1-4)[Fuc(a1-3)]GlcNAc(b1-3)Gal(b1-4)[Fuc(a1-3)]GlcNAc
# Method in brief: as §1
# [6] = biological target: Fuc(a1-2)Gal(b1-4)[Fuc(a1-3)]GlcNAc(b1-3)Gal(b1-4)[Fuc(a1-3)]GlcNAc(b1-3)Gal(b1-4)[Fuc(a1-3)]GlcNAc
# Method in brief: as §1
# [7] = biological target: Fuc(a1-2)Gal(b1-4)[Fuc(a1-3)]GlcNAc(b1-3)GalNAc
# Method in brief: as §1
# Fuc(a1-2)Gal6S(b1-4)Glc = biological target: Fuc(a1-2)Gal6S(b1-4)Glc
# Method in brief: as §1
# [8] = biological target: Fuc(a1-2)Gal6S(b1-4)Glc6S
# Method in brief: as §1
# [9] = biological target: Fuc(a1-2)Gal6S(b1-4)GlcNAc
# Method in brief: as §1
# Fuc(a1-2)GlcNAc = biological target: Fuc(a1-2)GlcNAc
# Method in brief: as §1
# Fuc(a1-2)[Gal(a1-3)]Gal = biological target: Fuc(a1-2)[Gal(a1-3)]Gal
# Method in brief: as §1
# [10] = biological target: Fuc(a1-2)[Gal(a1-3)]Gal(b1-3)GlcNAc
# Method in brief: as §1
# [11] = biological target: Fuc(a1-2)[Gal(a1-3)]Gal(b1-3)GlcNAc(b1-2)Man(a1-3)[Fuc(a1-2)[Gal(a1-3)]Gal(b1-3)GlcNAc(b1-2)Man(a1-6)]Man(b1-4)GlcNAc(b1-4)GlcNAc
# Method in brief: as §1
# [12] = biological target: Fuc(a1-2)[Gal(a1-3)]Gal(b1-3)GlcNAc(b1-3)GalNAc
# Method in brief: as §1
# [13] = biological target: Fuc(a1-2)[Gal(a1-3)]Gal(b1-4)Glc
# Method in brief: as §1
# [14] = biological target: Fuc(a1-2)[Gal(a1-3)]Gal(b1-4)GlcNAc
# Method in brief: as §1
# [15] = biological target: Fuc(a1-2)[Gal(a1-3)]Gal(b1-4)GlcNAc(b1-2)Man(a1-3)[Fuc(a1-2)[Gal(a1-3)]Gal(b1-4)GlcNAc(b1-2)Man(a1-6)]Man(b1-4)GlcNAc(b1-4)GlcNAc
# Method in brief: as §1
# [16] = biological target: Fuc(a1-2)[Gal(a1-3)]Gal(b1-4)GlcNAc(b1-2)Man(a1-3)[Fuc(a1-2)[Gal(a1-3)]Gal(b1-4)GlcNAc(b1-2)Man(a1-6)]Man(b1-4)GlcNAc(b1-4)[Fuc(a1-6)]GlcNAc
# Method in brief: as §1
# [17] = biological target: Fuc(a1-2)[Gal(a1-3)]Gal(b1-4)GlcNAc(b1-3)GalNAc
# Method in brief: as §1
# [18] = biological target: Fuc(a1-2)[Gal(a1-3)]Gal(b1-4)[Fuc(a1-3)]Glc
# Method in brief: as §1
# [19] = biological target: Fuc(a1-2)[Gal(a1-3)]Gal(b1-4)[Fuc(a1-3)]GlcNAc
# Method in brief: as §1
# [20] = biological target: Fuc(a1-2)[Gal(a1-3)]Gal(b1-4)[Fuc(a1-3)]GlcNAc(b1-3)GalNAc
# Method in brief: as §1
# [21] = biological target: Fuc(a1-2)[Gal(a1-4)]Gal(b1-4)GalNAc
# Method in brief: as §1
# [22] = biological target: Fuc(a1-2)[Gal(a1-4)]Gal(b1-4)GlcNAc
# Method in brief: as §1
# [23] = biological target: Fuc(a1-2)[GalNAc(a1-3)]Gal
# Method in brief: as §1
# [24] = biological target: Fuc(a1-2)[GalNAc(a1-3)]Gal(b1-3)GalNAc(a1-3)[Fuc(a1-2)]Gal(b1-4)GlcNAc
# Method in brief: as §1
# [25] = biological target: Fuc(a1-2)[GalNAc(a1-3)]Gal(b1-3)GlcNAc
# Method in brief: as §1
# [26] = biological target: Fuc(a1-2)[GalNAc(a1-3)]Gal(b1-3)GlcNAc(b1-2)Man(a1-3)[Fuc(a1-2)[GalNAc(a1-3)]Gal(b1-3)GlcNAc(b1-2)Man(a1-6)]Man(b1-4)GlcNAc(b1-4)GlcNAc
# Method in brief: as §1
# [27] = biological target: Fuc(a1-2)[GalNAc(a1-3)]Gal(b1-3)GlcNAc(b1-3)GalNAc
# Method in brief: as §1
binder,measurement,setting,value
B1,glycan array binding signal (z-score),[1],2.25
same,glycan array binding signal (z-score),[2],2.51
same,glycan array binding signal (z-score),[3],0.91
same,glycan array binding signal (z-score),[4],0.609
same,glycan array binding signal (z-score),[5],2.37
same,glycan array binding signal (z-score),[6],2.68
same,glycan array binding signal (z-score),[7],-0.341
same,glycan array binding signal (z-score),Fuc(a1-2)Gal6S(b1-4)Glc,2.37
same,glycan array binding signal (z-score),[8],2.44
same,glycan array binding signal (z-score),[9],2.6
same,glycan array binding signal (z-score),Fuc(a1-2)GlcNAc,1.05
same,glycan array binding signal (z-score),Fuc(a1-2)[Gal(a1-3)]Gal,1.85
same,glycan array binding signal (z-score),[10],-0.497
same,glycan array binding signal (z-score),[11],-0.407
same,glycan array binding signal (z-score),[12],-0.428
same,glycan array binding signal (z-score),[13],0.091
same,glycan array binding signal (z-score),[14],-0.009
same,glycan array binding signal (z-score),[15],-0.368
same,glycan array binding signal (z-score),[16],0.377
same,glycan array binding signal (z-score),[17],-0.435
same,glycan array binding signal (z-score),[18],0.528
same,glycan array binding signal (z-score),[19],0.529
same,glycan array binding signal (z-score),[20],-0.084
same,glycan array binding signal (z-score),[21],1.5
same,glycan array binding signal (z-score),[22],2.42
same,glycan array binding signal (z-score),[23],1.83
same,glycan array binding signal (z-score),[24],-0.435
same,glycan array binding signal (z-score),[25],-0.512
same,glycan array binding signal (z-score),[26],-0.432
same,glycan array binding signal (z-score),[27],-0.417
